Values quoted from earlier work, collected in article PMC11006913.
Numbering of substitutions follows the chain as printed. The list shows a part of the results.

Legend:
Details in all cases: PBM; conditions not shown; double strand, one strand shown; scale: upbm affinity estimate (log intensity, higher = more binding, comparable within an allelic series)
ARX (Homo sapiens) = ARX (Homo sapiens) (UniProt Q96QS3)
ARX L343Q (Homo sapiens) = ARX L343Q (Homo sapiens) (UniProt Q96QS3)
ARX P353L (Homo sapiens) = ARX P353L (Homo sapiens) (UniProt Q96QS3)
ARX P353R (Homo sapiens) = ARX P353R (Homo sapiens) (UniProt Q96QS3)
ARX R332H (Homo sapiens) = ARX R332H (Homo sapiens) (UniProt Q96QS3)
ARX T333N (Homo sapiens) = ARX T333N (Homo sapiens) (UniProt Q96QS3)
[1] = target: T1, HESX1 E149K (Homo sapiens) (UniProt Q9UBX0)
T1 sequence: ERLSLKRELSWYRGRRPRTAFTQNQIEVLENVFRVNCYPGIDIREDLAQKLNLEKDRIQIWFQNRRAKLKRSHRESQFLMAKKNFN

[2] = target: T2, HESX1 N125S (Homo sapiens) (UniProt Q9UBX0)
T2 sequence: T1 sequence with N31S, K55E

[3] = target: T3, HESX1 R160C (Homo sapiens) (UniProt Q9UBX0)
T3 sequence: T1 sequence with K55E, R66C

ISX (Homo sapiens) = ISX (Homo sapiens) (UniProt Q2M1V0)
ISX R83Q (Homo sapiens) = ISX R83Q (Homo sapiens) (UniProt Q2M1V0)
[4] = target: PROP1 R112Q (Homo sapiens) (UniProt O75360)
[5] = target: PROP1 R99Q (Homo sapiens) (UniProt O75360)
[6] = target: HOXD13 I297V (Homo sapiens) (UniProt P35453)
[7] = target: HOXD13 I322L (Homo sapiens) (UniProt P35453)
[8] = target: HOXD13 N298S (Homo sapiens) (UniProt P35453)
[9] = target: HOXD13 Q325K (Homo sapiens) (UniProt P35453)
[10] = target: HOXD13 Q325R (Homo sapiens) (UniProt P35453)
[11] = target: HOXD13 R306W (Homo sapiens) (UniProt P35453)
[12] = target: HOXD13 S316C (Homo sapiens) (UniProt P35453)

Sequence	binding signal (ARX (Homo sapiens))	binding signal (ARX L343Q (Homo sapiens))	binding signal (ARX P353L (Homo sapiens))	binding signal (ARX P353R (Homo sapiens))	binding signal (ARX R332H (Homo sapiens))	binding signal (ARX T333N (Homo sapiens))	binding signal [1]	binding signal [2]	binding signal [3]	binding signal (ISX (Homo sapiens))	binding signal (ISX R83Q (Homo sapiens))	binding signal [4]	binding signal [5]	binding signal [6]	binding signal [7]	binding signal [8]	binding signal [9]	binding signal [10]	binding signal [11]	binding signal [12]
GATAATTA [8-mer GATAATTA]	13.2	11	12.7	10.9	11.2	12.3	12	13.2	10.4	15.5	14.5	12.9	12.5							
CAATTAGG [8-mer CAATTAGG]	12.9	10.9	12.6	10.7	10.8	12	11.6	12.1	10.3	15	14.2	12.7	12.4							
AATTAAAT [8-mer AATTAAAT]	12.7	10.8	12.2	10.7	11	12	11.2	11.3	10.3	14.7	13.5	12.7	12.1							
GCTAATTA [8-mer GCTAATTA]	13.5	11	13.3	10.8	11.2	12.6	12.2	13.7	10.3	15.6	15.3	13	12.6							
TAATTAGA [8-mer TAATTAGA]	13.3	11	13	10.8	11.1	12.4	12	13.2	10.4	15.7	15.2	13	12.4							
AATTAATG [8-mer AATTAATG]	12.9	10.9	12.4	10.8	11.2	12.1	11.5	11.6	10.4	14.9	13.9	12.8	12.2							
ATAATTAC [8-mer ATAATTAC]	12.9	11	12.4	10.9	11.1	12	11.7	12.3	10.4	15.1	13.7	12.7	12.2							
CCAATTAC [8-mer CCAATTAC]	12.9	10.9	12.8	10.7	11.1	12.2	11.9	12.4	10.4	15.3	14.1	13	12.6							
CCGGAGGA [8-mer CCGGAGGA]	10.2	10.2	10.3	10.2	10.1	10.3								9.16	9.15	9.15	9.66	9.19	9.36	9.19
AATTATCA [8-mer AATTATCA]	12.7	10.9	12.1	10.9	11.1	11.8	11.4	11.3	10.4			12.6	12.1							
CAATTACC [8-mer CAATTACC]	12.8	10.8	12.4	10.6	10.9	11.9	11.8	11.9	10.3	15.1	13.7	12.8	12.4							
AATTAGCT [8-mer AATTAGCT]	12.8	10.9	12.5	10.6	10.9	12	11.5	11.1		14.5	13.4	12.7	12.2							
GGCCCGCC [8-mer GGCCCGCC]	10.1	10.1	10.1	9.97	9.99	10.2				9.71	9.65									
GTAATTGA [8-mer GTAATTGA]	12.8	10.9	12.5	10.7	11	11.9	11.6	12	10.3	15.1	13.7	12.7	12.2							
CGGGCCCG [8-mer CGGGCCCG]	10.2	9.95	10.1	9.96	10	10.3								9.96	9.91	9.93	9.41	9.6	9.41	9.77
CGCCCCGA [8-mer CGCCCCGA]	10.1	10.1	10.1	10	10	10.2								9.37	9.41	9.31	9.55	9.39	9.35	9.33
AATTAGAG [8-mer AATTAGAG]	12.7	10.8	12.2	10.7	10.9	11.8		11.1		14.6	13.3									
ACCCCCCG [8-mer ACCCCCCG]	10.2	10	10	9.86	9.96	10.2				9.76	9.79									
GGGGCGTA [8-mer GGGGCGTA]	10.3	10.2	10.3	10	10.1	10.4				9.75	9.83									
AAATTAAT [8-mer AAATTAAT]	12.8	10.8	12.2	10.7	11	12	11.2	11.4	10.3	14.8	13.6	12.7	12							
GAACCCCC [8-mer GAACCCCC]	10	10.1	10.1	9.87	9.99	10.1								9.39	9.31	9.42	9.42	9.32	9.2	9.35
ATTAATCA [8-mer ATTAATCA]	12.8	11	12.2	10.9	11.2	12	11.5	11.2	10.5			12.7	12.1							
TAATTGGA [8-mer TAATTGGA]	13	11	12.7	10.8	11.1	12.2	11.9	12.9	10.3	15.5	14.9	12.9	12.5							

Sequence	binding signal (ARX (Homo sapiens))	binding signal (ARX L343Q (Homo sapiens))	binding signal (ARX P353L (Homo sapiens))	binding signal (ARX P353R (Homo sapiens))	binding signal (ARX R332H (Homo sapiens))	binding signal (ARX T333N (Homo sapiens))	binding signal [1]	binding signal [2]	binding signal [3]	binding signal (ISX (Homo sapiens))	binding signal (ISX R83Q (Homo sapiens))	binding signal [4]	binding signal [5]	binding signal [6]	binding signal [7]	binding signal [8]	binding signal [9]	binding signal [10]	binding signal [11]	binding signal [12]
AATTAACT [8-mer AATTAACT]	12.9	10.9	12.4	10.8	11.1	12	11.6	11.8	10.4	15	13.9	12.8	12.3							
AATAATTA [8-mer AATAATTA]	13	10.9	12.5	10.8	11.1	12.1	11.7	12.9	10.4	15.1	14.1	12.7	12.2							
CGACCTCG [8-mer CGACCTCG]	10.3	10.3	10.3	10.3	10.3	10.3								9.7	9.65	9.66	9.35	9.57	9.5	9.64
GCTCGGCC [8-mer GCTCGGCC]	10.1	10.1	10.2	10	10	10.1								9.36	9.31	9.33	9.37	9.39	9.33	9.44
CAATTATA [8-mer CAATTATA]	12.7	10.9	12.3	10.9	11.1	12	11.8	12.8	10.4	15	13.8	12.7	12.3							
GGCAATTA [8-mer GGCAATTA]	12.8	10.8	12.4	10.8	10.9	11.9	11.6	12.1	10.3	14.9	13.9	12.7	12.2							
CTCCCGGC [8-mer CTCCCGGC]	10	10.1	10.1	10	10.1	10.2				9.82	9.67									
ATAATTGC [8-mer ATAATTGC]	12.6	10.9	12.1	10.9	11.1	11.8	11.6	12.1	10.4	14.9	13.2	12.7	12.2							
CCTGGGCC [8-mer CCTGGGCC]	10.1	9.98	10.1	9.96	9.94	10.1				9.77	9.7									
ATAATTGA [8-mer ATAATTGA]	12.8	11	12.5	10.8	11.2	12	11.9	12.7	10.4	15.1	13.8	12.7	12.3							
CGCCCAAG [8-mer CGCCCAAG]	10.1	10.1	10.2	10.1	10.1	10.3				9.62	9.67									
AATTAGCG [8-mer AATTAGCG]	12.9	10.9	12.5	10.7	10.9	12.1	11.4	11.4	10.3	14.9	13.7	12.7	12.3							
CCCCCCGA [8-mer CCCCCCGA]	10.2	10.1	10.2	9.92	9.99	10.3				9.91	9.79									
CCGAGGGC [8-mer CCGAGGGC]	10	9.96	10.1	9.95	10.1	10.2				9.9	9.69									
AATTAGAT [8-mer AATTAGAT]	12.9	10.8	12.4	10.7	11.1	11.9	11.3	11.3	10.3			12.8	12.2							
CAATTAAC [8-mer CAATTAAC]	12.9	11	12.6	10.9	11.1	12.1	11.9	12.5	10.4	15.3	14.7	12.9	12.4							
AATTAGCA [8-mer AATTAGCA]	12.8	10.8	12.5	10.7	10.9	11.9	11.3	11.3	10.3	14.6	13.5	12.6	12.1							
ATTAATGA [8-mer ATTAATGA]	12.8	10.9	12.4	10.8	11.1	11.9		11.2		14.7	13.5	12.7		12.3	11.4	12.6	11.4	11.9	11.6	12.2
CCGCGTCG [8-mer CCGCGTCG]	10.2	10.2	10.2	10.1	10.2	10.3								9.53	9.56	9.4	9.54	9.36	9.39	9.38
AATTATGT [8-mer AATTATGT]	12.7	10.9	12.1	10.8	11.1	11.8	11.4					12.6	12.2							
AACTAATT [8-mer AACTAATT]	12.8	10.9	12.3	10.8	11	11.8	11.4	11	10.3		13.3	12.7	12.2							
AATTAAGT [8-mer AATTAAGT]	12.7	10.8	12.1	10.7	10.9	11.8	11.3	11.3	10.2	14.7	13.5	12.6	12.1							
ACAATTAA [8-mer ACAATTAA]	12.7	10.9	12.1	10.7	11	11.9	11.5	11.9	10.4	15	14	12.7	12							
